Assay results taken from article PMC12521208.
Results are given in words; binding and its absence hold for the method and conditions named. Binding seen in cells or lysates may run through a third protein. Some results given as binding are weak or reduced against the parent protein; the word gives no strength.

Sequences of proteins named here, by UniProt entry; tags and fusion partners are left off. A change or cut given only in a name is not applied to a line headed by its entry. A line that says so, or that is headed by a name, gives the form on record, which may keep a tag or linker. Residues count along the entry.
UniProt Q99836: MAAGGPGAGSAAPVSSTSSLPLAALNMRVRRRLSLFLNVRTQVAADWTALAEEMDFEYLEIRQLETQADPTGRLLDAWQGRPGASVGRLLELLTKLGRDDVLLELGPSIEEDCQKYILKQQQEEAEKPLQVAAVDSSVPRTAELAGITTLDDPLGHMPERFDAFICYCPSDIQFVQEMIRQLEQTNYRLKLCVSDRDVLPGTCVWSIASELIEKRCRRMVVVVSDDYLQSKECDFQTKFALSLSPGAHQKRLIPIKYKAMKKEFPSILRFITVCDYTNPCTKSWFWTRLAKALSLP
human TLR4 WT-HA (O00206, residues 24-839): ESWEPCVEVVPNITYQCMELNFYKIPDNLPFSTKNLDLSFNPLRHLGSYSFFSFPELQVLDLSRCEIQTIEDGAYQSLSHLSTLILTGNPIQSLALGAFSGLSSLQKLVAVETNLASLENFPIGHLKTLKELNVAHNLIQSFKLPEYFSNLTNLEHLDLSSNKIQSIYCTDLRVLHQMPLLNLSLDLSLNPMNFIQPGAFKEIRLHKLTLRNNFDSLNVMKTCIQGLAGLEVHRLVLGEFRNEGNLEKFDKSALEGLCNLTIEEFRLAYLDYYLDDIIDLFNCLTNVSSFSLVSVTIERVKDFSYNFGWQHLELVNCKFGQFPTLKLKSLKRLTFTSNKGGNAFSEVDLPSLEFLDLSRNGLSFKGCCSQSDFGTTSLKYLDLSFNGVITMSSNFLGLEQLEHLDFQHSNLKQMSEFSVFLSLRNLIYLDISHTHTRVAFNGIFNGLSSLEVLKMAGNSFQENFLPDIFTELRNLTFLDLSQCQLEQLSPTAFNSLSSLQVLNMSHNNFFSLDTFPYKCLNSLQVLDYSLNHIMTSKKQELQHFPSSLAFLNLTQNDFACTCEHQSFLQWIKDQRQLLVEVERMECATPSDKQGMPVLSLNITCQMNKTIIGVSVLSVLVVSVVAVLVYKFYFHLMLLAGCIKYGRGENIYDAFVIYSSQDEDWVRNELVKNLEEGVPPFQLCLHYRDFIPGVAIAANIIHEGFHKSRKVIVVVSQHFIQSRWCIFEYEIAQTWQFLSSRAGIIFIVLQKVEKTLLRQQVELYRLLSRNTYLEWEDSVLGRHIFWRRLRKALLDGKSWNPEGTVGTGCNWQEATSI
human TLR4 p.(Pro823Thr)-HA (O00206, form named): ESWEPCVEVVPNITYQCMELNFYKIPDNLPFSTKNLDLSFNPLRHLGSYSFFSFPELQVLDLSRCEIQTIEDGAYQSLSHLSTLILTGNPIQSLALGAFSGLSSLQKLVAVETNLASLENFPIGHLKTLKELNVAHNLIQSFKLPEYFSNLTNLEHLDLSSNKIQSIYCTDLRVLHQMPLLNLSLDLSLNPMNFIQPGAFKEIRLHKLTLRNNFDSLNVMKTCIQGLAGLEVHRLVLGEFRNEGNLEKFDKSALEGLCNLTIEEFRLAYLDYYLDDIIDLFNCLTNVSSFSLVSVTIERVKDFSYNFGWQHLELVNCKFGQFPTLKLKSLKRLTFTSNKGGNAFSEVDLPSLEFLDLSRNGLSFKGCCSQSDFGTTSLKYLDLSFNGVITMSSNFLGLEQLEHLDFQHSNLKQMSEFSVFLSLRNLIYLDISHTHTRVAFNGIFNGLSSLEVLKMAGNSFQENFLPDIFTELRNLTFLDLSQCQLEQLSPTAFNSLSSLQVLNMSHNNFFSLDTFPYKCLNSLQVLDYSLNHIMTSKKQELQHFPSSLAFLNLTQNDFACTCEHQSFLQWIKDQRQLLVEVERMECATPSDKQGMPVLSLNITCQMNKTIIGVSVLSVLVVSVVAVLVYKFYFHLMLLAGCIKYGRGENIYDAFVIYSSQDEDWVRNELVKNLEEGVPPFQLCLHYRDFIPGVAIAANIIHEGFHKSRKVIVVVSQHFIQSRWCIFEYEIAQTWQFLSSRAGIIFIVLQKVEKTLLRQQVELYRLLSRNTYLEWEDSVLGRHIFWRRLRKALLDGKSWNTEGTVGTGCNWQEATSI
human TLR4 p.(Arg804Trp)-HA (O00206, form named): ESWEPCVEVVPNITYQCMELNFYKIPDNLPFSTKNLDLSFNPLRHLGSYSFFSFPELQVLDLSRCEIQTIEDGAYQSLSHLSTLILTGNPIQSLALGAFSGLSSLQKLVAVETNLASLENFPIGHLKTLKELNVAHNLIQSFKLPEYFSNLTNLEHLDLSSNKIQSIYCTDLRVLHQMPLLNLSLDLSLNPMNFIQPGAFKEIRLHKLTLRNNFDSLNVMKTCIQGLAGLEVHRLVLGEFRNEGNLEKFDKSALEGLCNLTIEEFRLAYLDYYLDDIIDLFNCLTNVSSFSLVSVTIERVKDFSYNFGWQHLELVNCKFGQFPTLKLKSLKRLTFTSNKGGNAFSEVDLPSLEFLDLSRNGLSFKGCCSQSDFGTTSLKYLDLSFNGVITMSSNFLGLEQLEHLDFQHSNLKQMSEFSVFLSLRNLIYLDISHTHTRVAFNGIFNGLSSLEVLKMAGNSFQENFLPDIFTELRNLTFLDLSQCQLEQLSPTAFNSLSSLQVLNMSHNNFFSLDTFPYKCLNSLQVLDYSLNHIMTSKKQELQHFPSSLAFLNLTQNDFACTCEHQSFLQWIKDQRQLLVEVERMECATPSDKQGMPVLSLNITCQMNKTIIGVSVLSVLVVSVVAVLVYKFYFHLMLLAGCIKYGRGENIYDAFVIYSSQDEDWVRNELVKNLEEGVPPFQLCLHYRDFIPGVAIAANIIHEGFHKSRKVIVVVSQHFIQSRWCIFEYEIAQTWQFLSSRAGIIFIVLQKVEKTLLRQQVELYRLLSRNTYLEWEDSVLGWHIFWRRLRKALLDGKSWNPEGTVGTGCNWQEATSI
human TLR4 p.(Phe749Leu)-HA (O00206, form named): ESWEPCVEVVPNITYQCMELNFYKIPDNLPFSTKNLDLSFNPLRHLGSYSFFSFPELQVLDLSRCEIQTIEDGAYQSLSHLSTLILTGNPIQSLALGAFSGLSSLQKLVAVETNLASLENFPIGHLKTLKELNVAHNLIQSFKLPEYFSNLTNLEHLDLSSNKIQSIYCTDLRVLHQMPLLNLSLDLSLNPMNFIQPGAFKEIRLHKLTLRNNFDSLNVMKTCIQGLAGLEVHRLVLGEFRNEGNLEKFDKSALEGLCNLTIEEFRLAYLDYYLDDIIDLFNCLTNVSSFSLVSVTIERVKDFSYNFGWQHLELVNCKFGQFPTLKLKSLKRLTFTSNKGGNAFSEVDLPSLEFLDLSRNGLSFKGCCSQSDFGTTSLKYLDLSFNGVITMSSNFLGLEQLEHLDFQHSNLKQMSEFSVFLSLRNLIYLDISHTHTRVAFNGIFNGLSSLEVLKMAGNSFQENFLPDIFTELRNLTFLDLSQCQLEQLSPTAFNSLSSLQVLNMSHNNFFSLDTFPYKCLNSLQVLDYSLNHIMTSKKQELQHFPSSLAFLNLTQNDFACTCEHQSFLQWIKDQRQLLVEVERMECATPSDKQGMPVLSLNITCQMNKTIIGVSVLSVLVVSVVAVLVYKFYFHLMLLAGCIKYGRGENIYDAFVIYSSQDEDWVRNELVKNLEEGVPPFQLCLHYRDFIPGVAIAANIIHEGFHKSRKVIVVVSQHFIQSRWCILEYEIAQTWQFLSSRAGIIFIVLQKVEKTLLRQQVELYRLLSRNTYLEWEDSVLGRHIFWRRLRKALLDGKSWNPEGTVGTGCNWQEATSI
human TLR4 p.(Gly715Ser)-HA (O00206, form named): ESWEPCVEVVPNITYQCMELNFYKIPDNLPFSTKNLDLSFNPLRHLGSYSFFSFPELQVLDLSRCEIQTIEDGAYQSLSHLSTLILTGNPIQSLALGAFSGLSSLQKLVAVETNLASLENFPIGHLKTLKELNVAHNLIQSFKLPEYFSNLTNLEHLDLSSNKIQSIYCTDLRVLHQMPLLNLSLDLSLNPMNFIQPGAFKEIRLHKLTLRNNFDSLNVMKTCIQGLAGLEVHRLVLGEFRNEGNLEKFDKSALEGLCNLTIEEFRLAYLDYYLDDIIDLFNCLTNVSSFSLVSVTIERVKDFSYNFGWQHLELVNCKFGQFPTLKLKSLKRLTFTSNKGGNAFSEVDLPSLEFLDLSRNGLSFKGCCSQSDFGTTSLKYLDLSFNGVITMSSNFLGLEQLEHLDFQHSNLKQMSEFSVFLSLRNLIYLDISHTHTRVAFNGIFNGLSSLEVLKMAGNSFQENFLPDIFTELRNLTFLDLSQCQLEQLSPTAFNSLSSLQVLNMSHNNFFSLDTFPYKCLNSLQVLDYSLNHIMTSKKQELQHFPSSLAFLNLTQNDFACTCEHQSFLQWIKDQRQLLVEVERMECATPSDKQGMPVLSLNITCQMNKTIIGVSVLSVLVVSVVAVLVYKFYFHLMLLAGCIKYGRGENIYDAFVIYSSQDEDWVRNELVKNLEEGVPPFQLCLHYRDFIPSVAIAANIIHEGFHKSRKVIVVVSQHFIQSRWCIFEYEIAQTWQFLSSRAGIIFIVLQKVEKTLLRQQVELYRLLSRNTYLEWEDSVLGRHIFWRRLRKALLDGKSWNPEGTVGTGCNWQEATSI
human TLR4 p.(Arg763Cys)-HA (O00206, form named): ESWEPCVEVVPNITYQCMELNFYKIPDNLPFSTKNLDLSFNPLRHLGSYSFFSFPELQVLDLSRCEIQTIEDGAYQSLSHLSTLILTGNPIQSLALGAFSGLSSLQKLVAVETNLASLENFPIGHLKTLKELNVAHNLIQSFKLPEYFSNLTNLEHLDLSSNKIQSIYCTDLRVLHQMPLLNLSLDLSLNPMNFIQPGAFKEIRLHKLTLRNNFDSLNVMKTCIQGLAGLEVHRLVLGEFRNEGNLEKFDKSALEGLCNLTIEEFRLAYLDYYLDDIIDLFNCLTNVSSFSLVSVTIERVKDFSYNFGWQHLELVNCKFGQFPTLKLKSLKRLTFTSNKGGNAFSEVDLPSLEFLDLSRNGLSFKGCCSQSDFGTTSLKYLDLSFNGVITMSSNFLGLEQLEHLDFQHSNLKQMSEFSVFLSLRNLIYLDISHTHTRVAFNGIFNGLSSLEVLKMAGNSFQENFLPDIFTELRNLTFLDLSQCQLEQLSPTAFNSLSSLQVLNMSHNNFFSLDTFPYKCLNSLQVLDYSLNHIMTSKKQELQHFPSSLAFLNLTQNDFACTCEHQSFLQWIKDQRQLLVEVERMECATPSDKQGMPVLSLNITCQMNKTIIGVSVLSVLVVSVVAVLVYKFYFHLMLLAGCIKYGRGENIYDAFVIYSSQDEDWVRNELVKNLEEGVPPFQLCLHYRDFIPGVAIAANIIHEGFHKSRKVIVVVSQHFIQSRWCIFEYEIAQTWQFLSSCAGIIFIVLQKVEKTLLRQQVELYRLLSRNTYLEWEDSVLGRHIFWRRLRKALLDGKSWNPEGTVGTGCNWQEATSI

Biological target: human Myd88-Flag (human) (UniProt Q99836)
Assay: co-IP; HEK293T co-transfected with 8 µg TLR4 WT-HA or variant-HA and 8 µg Myd88-Flag; lysis in 50 mM Tris pH 7.4, 150 mM NaCl, 1% Triton X-100, 0.5% sodium deoxycholate, 0.1% SDS; overnight with HA-Trap or DYKDDDDK(flag)-Trap magnetic beads; blot with anti-HA or anti-Flag

Row | binding | Substance
1 | binds | human TLR4 WT-HA (from UniProt O00206 24-839) (receptor)
2 | binds | human TLR4 p.(Pro823Thr)-HA (from UniProt O00206 24-839) (receptor)
3 | no binding | human TLR4 p.(Arg804Trp)-HA (from UniProt O00206 24-839) (receptor)
4 | binds | human TLR4 p.(Phe749Leu)-HA (from UniProt O00206 24-839) (receptor)
5 | no binding | human TLR4 p.(Gly715Ser)-HA (from UniProt O00206 24-839) (receptor)
6 | no binding | human TLR4 p.(Arg763Cys)-HA (from UniProt O00206 24-839) (receptor)
